From ChEMBL document CHEMBL3526086, “Identification of the oxidative and conjugative enzymes involved in the biotransformation of brivanib” (Drug Metab Dispos, 2012)

Substrate: Cc1cc2c(F)c(Oc3ncnn4cc(OC[C@@H](C)O)c(C)c34)ccc2[nH]1
Assay: Activity of human CYP3A4 assessed as enzyme-mediated (R)-1-(4-(4-fluoro-2-(hydroxymethyl)-1H-indol-5-yloxy)-5-methylpyrrolo[1,2-f][1,2,4]triazin-6-yloxy)propan-2-ol formation in presence of NADPH
Assay type: ADME

B1: Cytochrome P450 3A4 (Homo sapiens) (protein)
chain: MALIPDLAMETWLLLAVSLVLLYLYGTHSHGLFKKLGIPGPTPLPFLGNILSYHKGFCMFDMECHKKYGKVWGFYDGQQPVLAITDPDMIKTVLVKECYSVFTNRRPFGPVGFMKSAISIAEDEEWKRLRSLLSPTFTSGKLKEMVPIIAQYGDVLVRNLRREAETGKPVTLKDVFGAYSMDVITSTSFGVNIDSLNNPQDPFVENTKKLLRFDFLDPFFLSITVFPFLIPILEVLNICVFPREVTNFLRKSVKRMKESRLEDTQKHRVDFLQLMIDSQNSKETESHKALSDLELVAQSIIFIFAGYETTSSVLSFIMYELATHPDVQQKLQEEIDAVLPNKAPPTYDTVLQMEYLDMVVNETLRLFPIAMRLERVCKKDVEINGMFIPKGVVVMIPSYALHRDPKYWTEPEKFLPERFSKKNKDNIDPYIYTPFGSGPRNCIGMRFALMNMKLALIRVLQNFSFKPCKETQIPLKLSLGGLLQPEKPVVLKVESRDGTVSGA
- Km: 32.7 µM
- Vmax: 5.3e-07 µmol/min
